Conditions: at 100 μM

CC(C)OC(=O)[C@H](C)N[P@](=O)(OC[C@H]1O[C@@H](n2cnc3sc(C(N)=O)c(N)c32)C(O)C1O)Oc1ccccc1 (stereo partly shown) [CEM-015]
Toxicity in words, CHIKV row: Non-tox at 100 μM

Reference: patent publication US20260184738A1 (priority 2023, published 2026)
